# Several values for one entry are separate records, joined by “and”; a condition that tells them apart may be missing. Identical values can stand only once.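 Five concentrations, 48 hours, 96-well plates. Here, GI50 denotes the concentration required for 50% inhibition of growth. At the TGI there is no net growth.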
# Tested on: NCI-H322M lung
# Experiment: NCI tumour cell line growth inhibition, 48 h
SMILES,TGI [µM],GI50
COc1ccc2ccccc2c1C1OC(=O)c2ccccc21 (centres undefined),> 100,–
CCCCN(CCCC)c1ccc(C(=N)c2ccc(N(CCCC)CCCC)cc2)cc1,3.27,1.69 µM
Cc1c2c(n(CCc3ccc(Cl)cc3)c1C)NC(c1ccccc1)C(C#N)S2(=O)=O (centres undefined),> 100,–
COc1ccc(-c2cc(-c3cc4cc(Br)ccc4nc3Cl)c(C#N)c(N)n2)cc1,> 12.5,–
CC1(C)CC(C)(C)C1=NNC(N)=O,> 100,–
O=c1c2cc(I)ccc2nc(-c2cccs2)n1-c1ccc(O)cc1,22.5,–
COc1ccc(NC(C)=O)cc1N1C(=O)/C(=C\c2cc(OC)c(OC)c(OC)c2)SC1c1ccccc1 (centres undefined),> 100,–
CN(C)c1nc2oc(-c3ccccc3)c(-c3ccccc3)c2c2nnnn12,> 100,–
CCOc1cc2ncc(C#N)c(Nc3ccc(OCc4ccccn4)c(Cl)c3)c2cc1NC(=O)/C=C/CN(C)C,–,0.0329 µM and 0.0364 µM
COc1cc(/C=C2/C[C@H]3[C@@H]4CC=C5C[C@@H](OC(C)=O)CC[C@]5(C)[C@H]4CC[C@]3(C)NC2=O)cc(OC)c1OC,> 100,–
COc1ccc(C(=O)/C=C/c2c(Cl)c3c(c(OC)c2Cl)OCC(=O)N3)cc1,> 100,3.94 µM
COc1ccc(C)cc1Nc1nnc(-c2ccccc2N)s1,> 100,–
COc1ccc(C(C#N)Cc2cc(OC)c(OC)c(OC)c2)cc1 (centres undefined),> 100,–
CCOC(=O)C(=Cc1cccnc1C)C(=O)OCC,21.8,–
C#CCSC(C=C=C)P(=O)(OC(C)C)OC(C)C (centres undefined),> 100,–
COC(=O)C1=C(c2cc(OC)c(OC)c(OC)c2)OC(c2ccc(OC)c(OC)c2)C1 (centres undefined),> 100,–
C/C(Nc1ccc(F)cc1)=C1/CCOC1=O,> 100,–
COC(=O)c1c(OC(C)=O)ccc2c1c1c(n2C)C(=O)c2ccccc2C1=O,74.7,–
COc1cc(C(=O)NC2CCN(C)CC2)c(F)cc1Nc1ncc2c(n1)N(C1CCCC1)CC(F)(F)C(=O)N2C,13.9,< 0.0233 µM
Cc1ccc(C)c(NC(=O)CC/C(=N\NC(=O)c2c(O)ccc3ccccc23)C(C)C(=O)c2ccc(O)cc2)c1 (centres undefined),> 100,–
CC1(C)[C@@H](OC(N)=O)[C@H]2O[C@H]2[C@]2(CO)[C@H]3CC[C@]4(C)[C@@H](c5ccc(=O)oc5)[C@@H](Cl)C[C@]4(O)C3=CC[C@@H]12,0.0274,0.00788 µM
CCOC(=O)c1cnc2oc3ccc(O)cc3c2c1-c1ccccc1,> 100,–
[N-]=[N+]=NC(CI)c1cn([C@H]2C[C@H](O)[C@@H](CO)O2)c(=O)[nH]c1=O (some centres undefined),> 100,–
O=C(O)c1ccn(-c2cccc(-n3ccc(C(=O)O)n3)n2)n1,> 100,–
CCSCCCN(CCCSCC)CCCSCC,> 100,–
CSc1n[nH]c(N)c1C(=O)Nc1ccc(C)cc1,> 100,–

SMILES,TGI [µM],GI50
N#Cc1c(-c2ccc(Cl)cc2)c2c(n(C3OC(CO)C(O)C(O)C3O)c1=S)CCC2 (centres undefined),> 100,–
COc1ccc(-c2cc(-c3ccc(Nc4ccnc5cc(Cl)ccc45)cc3)[nH]c(=O)c2C#N)c2ccccc12,> 91.2,–
CC(=O)C1C(=O)C(=O)N(c2ccccc2C(C)C)C1=O (centres undefined),> 100,–
COc1c2c(nc3ccccc13)-c1cc3c(c(=O)n1C2)COC(=O)C3(O)CC(=O)N1CCOCC1 (centres undefined),84.6,–
CCOC(=O)Cc1cc(OC)c(OC)cc1/C(Cl)=C(\C=O)c1ccc(OC)c(OC)c1,55.5,–
O=C(Cn1c(C(=O)/C=C/c2cccs2)nc2ccccc21)c1ccc(Cl)cc1,> 100,–
Oc1c([Si](c2ccccc2)(c2ccccc2)c2ccccc2)cc2ccccc2c1-c1c(O)c([Si](c2ccccc2)(c2ccccc2)c2ccccc2)cc2ccccc12,> 100,–
CN(C(=O)c1ccco1)C(=S)N1CCN(c2ccccc2)CC1,> 100,–
O=C(Nc1nc2ccccc2s1)c1cc([N+](=O)[O-])ccc1Cl,> 100,–
COc1ccc(OC)c(NC(=O)CCC/C(CC(=O)c2ccc(O)c(OC)c2)=N\Nc2ccc([N+](=O)[O-])cc2)c1,> 100,–
Cc1ccc(S(=O)(=O)Nc2cccc3[nH]c(C(F)(F)F)nc23)cc1,> 70.5,1.77 µM
O=C(O)c1nc(-c2ccccc2)[nH]c1C(=O)O,30.9,–
C1=C2/CC[C@H](Sc3ccccc3)[C@H]2C2(CCCCC/1)OCCO2,> 100,–
COc1cccc(-n2ncc3c(N/N=C/c4ccncc4)ncnc32)c1,> 25,> 25 µM
C/C=C(/COC(C)=O)C(=O)OC1C=C(C=O)C(C)(C)C=C1C (centres undefined),> 100,–
O=C(c1ccccc1)c1cccc(C(=O)c2ccccc2)c1,> 100,–
C/C(CC(=O)Nc1ccc(Cl)cc1)=N\NC(N)=S,> 100,–
CS[C@]12C(=O)C[C@@]3(C)[C@@H](CC[C@]3(O)C(=O)CO)[C@@H]1CCC1=CC(=O)CC[C@@]12C,> 100,–
COc1ccc(OC)c2c1C(=O)C1CC1(Br)C2=O (centres undefined),> 100,–
COc1cc(/C=C2\Sc3scc(-c4cccc([N+](=O)[O-])c4)[n+]3C2=O)cc(OC)c1OC,99.6,–
N#Cc1ccccc1-c1nc2c3c(c(N)ccc3n1)C(=O)c1ccccc1-2,> 100,–
CCOC(=O)c1nc2ccc(C(F)(F)F)cc2nc1Oc1cc(OC)cc(OC)c1,> 100,–
COc1ccc(OC)c(-c2c(C#N)c(N)nc(N3CCOCC3)c2C#N)c1,> 100,40.3 µM
COc1ccc2c(c1)C(=O)c1c-2c(N(C)C)nc2ccccc12,> 100,> 100 µM
NC(=S)N/N=C/c1ncccc1N,> 100,–

# Reference: PubChem BioAssay (NCI)
